In the supplement of paper PMC8728848:
The other results are listed elsewhere or left out.

Assays:
Assay in all cases: glycan array binding signal (z-score within array); higher = stronger binding
Details in all cases: glycan notation: IUPAC condensed, linker removed
[1] = target: Glc(b1-4)Glc
Procedure, shortened: (§1)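 Glycan array data came from 3228 arrays in the Consortium for Functional Glycomics database, and only arrays with an available protein sequence were kept. Glycan names were put into IUPAC-condensed notation, and columns mapping to the same glycan were averaged. The binding signal is a within-array Z-score, averaged across arrays of one protein sequence run at different concentrations or buffers and across linkers. A negative Z-score can be read as non-binding.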

[2] = target: Glc(b1-6)Glc
Procedure, shortened: as §1

[3] = target: GlcA(b1-3)Gal
Procedure, shortened: as §1

[4] = target: GlcA(b1-3)GlcNAc
Procedure, shortened: as §1

[5] = target: GlcA(b1-6)Gal
Procedure, shortened: as §1

[6] = target: GlcA3S(b1-3)Gal(b1-4)GlcNAc(b1-2)Man
Procedure, shortened: as §1

[7] = target: GlcA3S(b1-3)Gal(b1-4)GlcNAc(b1-3)Gal(b1-4)Glc
Procedure, shortened: as §1

[8] = target: GlcNAc(a1-3)Gal(b1-4)GlcNAc
Procedure, shortened: as §1

[9] = target: GlcNAc(a1-4)Gal(b1-3)GlcNAc
Procedure, shortened: as §1

[10] = target: GlcNAc(a1-4)Gal(b1-4)GalNAc
Procedure, shortened: as §1

[11] = target: GlcNAc(a1-4)Gal(b1-4)GlcNAc
Procedure, shortened: as §1

[12] = target: GlcNAc(a1-4)Gal(b1-4)GlcNAc(b1-3)Gal(b1-4)Glc
Procedure, shortened: as §1

[13] = target: GlcNAc(a1-4)Gal(b1-4)GlcNAc(b1-3)Gal(b1-4)GlcNAc
Procedure, shortened: as §1

[14] = target: GlcNAc(a1-4)Gal(b1-4)GlcNAc(b1-3)Gal(b1-4)GlcNAc(b1-3)Gal(b1-4)GlcNAc
Procedure, shortened: as §1

[15] = target: GlcNAc(a1-4)Gal(b1-4)GlcNAc(b1-3)Gal(b1-4)[Fuc(a1-3)]GlcNAc(b1-3)Gal(b1-4)[Fuc(a1-3)]GlcNAc
Procedure, shortened: as §1

[16] = target: GlcNAc(a1-6)Gal(b1-4)GlcNAc
Procedure, shortened: as §1

[17] = target: GlcNAc(b1-2)Gal(b1-3)GalNAc
Procedure, shortened: as §1

[18] = target: GlcNAc(b1-2)Man(a1-3)[GlcNAc(b1-2)Man(a1-6)]Man(b1-4)GlcNAc(b1-4)GlcNAc
Procedure, shortened: as §1

[19] = target: GlcNAc(b1-2)Man(a1-3)[GlcNAc(b1-2)Man(a1-6)]Man(b1-4)GlcNAc(b1-4)[Fuc(a1-6)]GlcNAc
Procedure, shortened: as §1

[20] = target: GlcNAc(b1-2)Man(a1-3)[GlcNAc(b1-4)][GlcNAc(b1-2)Man(a1-6)]Man(b1-4)GlcNAc(b1-4)GlcNAc
Procedure, shortened: as §1

[21] = target: GlcNAc(b1-2)Man(a1-3)[GlcNAc(b1-4)][GlcNAc(b1-2)Man(a1-6)]Man(b1-4)GlcNAc(b1-4)[Fuc(a1-6)]GlcNAc
Procedure, shortened: as §1

[22] = target: GlcNAc(b1-2)[GlcNAc(b1-4)]Man(a1-3)[GlcNAc(b1-2)Man(a1-6)]Man(b1-4)GlcNAc(b1-4)GlcNAc
Procedure, shortened: as §1

[23] = target: GlcNAc(b1-2)[GlcNAc(b1-4)]Man(a1-3)[GlcNAc(b1-4)][GlcNAc(b1-2)Man(a1-6)]Man(b1-4)GlcNAc(b1-4)GlcNAc
Procedure, shortened: as §1

[24] = target: GlcNAc(b1-2)[GlcNAc(b1-4)]Man(a1-3)[GlcNAc(b1-4)][GlcNAc(b1-2)[GlcNAc(b1-6)]Man(a1-6)]Man(b1-4)GlcNAc(b1-4)GlcNAc
Procedure, shortened: as §1

[25] = target: GlcNAc(b1-2)[GlcNAc(b1-4)]Man(a1-3)[GlcNAc(b1-4)][GlcNAc(b1-2)[GlcNAc(b1-6)]Man(a1-6)]Man(b1-4)GlcNAc(b1-4)[Fuc(a1-6)]GlcNAc
Procedure, shortened: as §1

[26] = target: GlcNAc(b1-2)[GlcNAc(b1-6)]Man(a1-6)[GlcNAc(b1-2)Man(a1-3)]Man(b1-4)GlcNAc(b1-4)GlcNAc
Procedure, shortened: as §1

[27] = target: GlcNAc(b1-2)[GlcNAc(b1-6)]Man(a1-6)[GlcNAc(b1-2)Man(a1-3)]Man(b1-4)GlcNAc(b1-4)[Fuc(a1-6)]GlcNAc
Procedure, shortened: as §1

[28] = target: GlcNAc(b1-2)[GlcNAc(b1-6)]Man(a1-6)[GlcNAc(b1-4)][GlcNAc(b1-2)Man(a1-3)]Man(b1-4)GlcNAc(b1-4)GlcNAc
Procedure, shortened: as §1

[29] = target: GlcNAc(b1-3)Fuc
Procedure, shortened: as §1

[30] = target: GlcNAc(b1-3)Gal
Procedure, shortened: as §1

[31] = target: GlcNAc(b1-3)Gal(b1-3)GalNAc
Procedure, shortened: as §1

[32] = target: GlcNAc(b1-3)Gal(b1-4)Glc
Procedure, shortened: as §1

[33] = target: GlcNAc(b1-3)Gal(b1-4)GlcNAc
Procedure, shortened: as §1

[34] = target: GlcNAc(b1-3)Gal(b1-4)GlcNAc(b1-2)Man(a1-3)[GlcNAc(b1-3)Gal(b1-4)GlcNAc(b1-2)Man(a1-6)]Man(b1-4)GlcNAc(b1-4)GlcNAc
Procedure, shortened: as §1

[35] = target: GlcNAc(b1-3)Gal(b1-4)GlcNAc(b1-2)Man(a1-3)[GlcNAc(b1-3)Gal(b1-4)GlcNAc(b1-2)Man(a1-6)]Man(b1-4)GlcNAc(b1-4)[Fuc(a1-6)]GlcNAc
Procedure, shortened: as §1

[36] = target: GlcNAc(b1-3)Gal(b1-4)GlcNAc(b1-2)[GlcNAc(b1-3)Gal(b1-4)GlcNAc(b1-6)]Man(a1-6)[GlcNAc(b1-3)Gal(b1-4)GlcNAc(b1-2)Man(a1-3)]Man(b1-4)GlcNAc(b1-4)GlcNAc
Procedure, shortened: as §1

[37] = target: GlcNAc(b1-3)Gal(b1-4)GlcNAc(b1-3)Gal(b1-4)GlcNAc
Procedure, shortened: as §1

[38] = target: GlcNAc(b1-3)Gal(b1-4)GlcNAc(b1-3)Gal(b1-4)GlcNAc(b1-2)Man(a1-3)[GlcNAc(b1-3)Gal(b1-4)GlcNAc(b1-3)Gal(b1-4)GlcNAc(b1-2)Man(a1-6)]Man(b1-4)GlcNAc(b1-4)GlcNAc
Procedure, shortened: as §1

[39] = target: GlcNAc(b1-3)Gal(b1-4)GlcNAc(b1-3)Gal(b1-4)GlcNAc(b1-2)Man(a1-3)[GlcNAc(b1-3)Gal(b1-4)GlcNAc(b1-3)Gal(b1-4)GlcNAc(b1-2)Man(a1-6)]Man(b1-4)GlcNAc(b1-4)[Fuc(a1-6)]GlcNAc
Procedure, shortened: as §1

[40] = target: GlcNAc(b1-3)Gal(b1-4)GlcNAc(b1-3)Gal(b1-4)GlcNAc(b1-2)[GlcNAc(b1-3)Gal(b1-4)GlcNAc(b1-3)Gal(b1-4)GlcNAc(b1-6)]Man(a1-6)[GlcNAc(b1-3)Gal(b1-4)GlcNAc(b1-3)Gal(b1-4)GlcNAc(b1-2)Man(a1-3)]Man(b1-4)GlcNAc(b1-4)[Fuc(a1-6)]GlcNAc
Procedure, shortened: as §1

[41] = target: GlcNAc(b1-3)Gal(b1-4)GlcNAc(b1-3)Gal(b1-4)GlcNAc(b1-3)Gal(b1-4)GlcNAc(b1-2)Man(a1-3)[GlcNAc(b1-3)Gal(b1-4)GlcNAc(b1-3)Gal(b1-4)GlcNAc(b1-3)Gal(b1-4)GlcNAc(b1-2)Man(a1-6)]Man(b1-4)GlcNAc(b1-4)GlcNAc
Procedure, shortened: as §1

[42] = target: GlcNAc(b1-3)Gal(b1-4)GlcNAc(b1-3)Gal(b1-4)GlcNAc(b1-3)Gal(b1-4)GlcNAc(b1-2)Man(a1-3)[GlcNAc(b1-3)Gal(b1-4)GlcNAc(b1-3)Gal(b1-4)GlcNAc(b1-3)Gal(b1-4)GlcNAc(b1-2)Man(a1-6)]Man(b1-4)GlcNAc(b1-4)[Fuc(a1-6)]GlcNAc
Procedure, shortened: as §1

[43] = target: GlcNAc(b1-3)Gal(b1-4)GlcNAc(b1-3)Gal(b1-4)GlcNAc(b1-3)Gal(b1-4)GlcNAc(b1-2)[GlcNAc(b1-3)Gal(b1-4)GlcNAc(b1-3)Gal(b1-4)GlcNAc(b1-3)Gal(b1-4)GlcNAc(b1-6)]Man(a1-6)[GlcNAc(b1-3)Gal(b1-4)GlcNAc(b1-3)Gal(b1-4)GlcNAc(b1-3)Gal(b1-4)GlcNAc(b1-2)Man(a1-3)]Man(b1-4)GlcNAc(b1-4)[Fuc(a1-6)]GlcNAc
Procedure, shortened: as §1

[44] = target: GlcNAc(b1-3)Gal(b1-4)GlcNAc(b1-3)Gal(b1-4)GlcNAc(b1-3)Gal(b1-4)GlcNAc(b1-3)Gal(b1-4)GlcNAc(b1-2)Man(a1-3)[GlcNAc(b1-3)Gal(b1-4)GlcNAc(b1-3)Gal(b1-4)GlcNAc(b1-3)Gal(b1-4)GlcNAc(b1-3)Gal(b1-4)GlcNAc(b1-2)Man(a1-6)]Man(b1-4)GlcNAc(b1-4)GlcNAc
Procedure, shortened: as §1

[45] = target: GlcNAc(b1-3)Gal(b1-4)GlcNAc(b1-3)Gal(b1-4)GlcNAc(b1-3)Gal(b1-4)GlcNAc(b1-3)Gal(b1-4)GlcNAc(b1-2)Man(a1-3)[GlcNAc(b1-3)Gal(b1-4)GlcNAc(b1-3)Gal(b1-4)GlcNAc(b1-3)Gal(b1-4)GlcNAc(b1-3)Gal(b1-4)GlcNAc(b1-2)Man(a1-6)]Man(b1-4)GlcNAc(b1-4)[Fuc(a1-6)]GlcNAc
Procedure, shortened: as §1

B1: CAA (Caragana arborescens) (protein)
chain: VAVEFDTFDNPDWDPRTKHIGIDVNSIRSNKTTQWGFWNRQVADVDISYEASSKTLNVSLYYPGESYIVTDVVDLKDILPEWVRIGF
For B1, the “glycan array binding signal (z-score)” value [1] was -0.233, the “glycan array binding signal (z-score)” value [2] was -0.236 and the “glycan array binding signal (z-score)” value [3] was -0.239. The “glycan array binding signal (z-score)” value [4] was -0.242, the “glycan array binding signal (z-score)” value [5] was -0.239 and the “glycan array binding signal (z-score)” value [6] was -0.251. The “glycan array binding signal (z-score)” value [7] was -0.243, the “glycan array binding signal (z-score)” value [8] was -0.253 and the “glycan array binding signal (z-score)” value [9] was -0.239. For the same binder, the “glycan array binding signal (z-score)” value [10] was -0.239, the “glycan array binding signal (z-score)” value [11] was -0.236 and the “glycan array binding signal (z-score)” value [12] was -0.253. The “glycan array binding signal (z-score)” value [13] was -0.246, the “glycan array binding signal (z-score)” value [14] was -0.238 and the “glycan array binding signal (z-score)” value [15] was -0.201. The “glycan array binding signal (z-score)” value [16] was -0.246, the “glycan array binding signal (z-score)” value [17] was -0.245 and the “glycan array binding signal (z-score)” value [18] was 5.92. For the same binder, the “glycan array binding signal (z-score)” value [19] was 3.39, the “glycan array binding signal (z-score)” value [20] was 1.19 and the “glycan array binding signal (z-score)” value [21] was -0.057. The “glycan array binding signal (z-score)” value [22] was 7.33, the “glycan array binding signal (z-score)” value [23] was -0.117 and the “glycan array binding signal (z-score)” value [24] was -0.24. For the same binder, the “glycan array binding signal (z-score)” value [25] was -0.245, the “glycan array binding signal (z-score)” value [26] was -0.234 and the “glycan array binding signal (z-score)” value [27] was -0.05. For the same binder, the “glycan array binding signal (z-score)” value [28] was -0.241, the “glycan array binding signal (z-score)” value [29] was -0.246 and the “glycan array binding signal (z-score)” value [30] was -0.244. The “glycan array binding signal (z-score)” value [31] was -0.239, the “glycan array binding signal (z-score)” value [32] was -0.237 and the “glycan array binding signal (z-score)” value [33] was -0.244. For the same binder, the “glycan array binding signal (z-score)” value [34] was -0.251, the “glycan array binding signal (z-score)” value [35] was -0.115 and the “glycan array binding signal (z-score)” value [36] was -0.238. The “glycan array binding signal (z-score)” value [37] was -0.244, the “glycan array binding signal (z-score)” value [38] was -0.17 and the “glycan array binding signal (z-score)” value [39] was -0.206. The “glycan array binding signal (z-score)” value [40] was -0.238, the “glycan array binding signal (z-score)” value [41] was -0.25 and the “glycan array binding signal (z-score)” value [42] was -0.227. The “glycan array binding signal (z-score)” value [43] was -0.231, the “glycan array binding signal (z-score)” value [44] was -0.244 and the “glycan array binding signal (z-score)” value [45] was -0.23.
